# Source: the supplement of paper PMC12217912
# The other results are listed elsewhere or left out. The full chains were built here from the parent and the listed change. Inactive controls read about 0.05.
# B1: TEV protease; numbered along this chain (parent)
# chain: MGESLFKGPRDYNPISSSICHLTNESDGHTTSLYGIGFGPFIITNKHLFRRNNGTLVVQSLHGVFKVKDTTTLQQHLVDGRDMIIIRMPKDFPPFPQKLKFREPQREERICLVTTNFQTKSMSSMVSDTSCTFPSGDGIFWKHWIQTKDGQCGSPLVSTRDGFIVGIHSASNFTNTNNYFTSVPKNFMELLTNQEAQQWVSGWRLNADSVLWGGHKVFMVKPEEPFQPVKEATQL
# Variants of: B1
# Assay: raw area under fraction-flipped curve 0-4 h after induction (AUC4h, not background-subtracted), DNA-recorder readout of cleavage of the substrate (dimensionless); higher = more cleavage of the substrate by the protease variant
# Conditions: temperature: 34 °C; time window: 0-4 h after rhamnose induction
# Protocol: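 In vivo DNA recorder in E. coli TOP10(DE3) ΔrhaA at 34 °C. Each TEVp single-site mutant (parent TEVp 0) is paired with a single-site variant of the 7-mer TEVs (canonical ENLYFQ|S). The substrate sits between flexible linkers in a Bxb1-sfGFP-TEVs-SsrA fusion, so cleavage stabilises Bxb1 and speeds flipping of a recombination array, read by NGS. The value is the raw area under the fraction-flipped curve over 0-4 h after rhamnose induction (AUC4h), with ≥20 reads per time point. It is not background-subtracted; inactive controls average about 0.047.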
# 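Also: Bxb1 expression induced with 0.2% (w/v) L-rhamnose at OD600 near 0.5, cultures sampled hourly, flipped fraction per protease–substrate barcode pair counted by paired-end Illumina sequencing.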
variant,measurement,value
MGESLFKGPRDYNPISSSICHLTNESDGHTTSLYGIGFGPFIITNKHLFRRNNGTLVVQSLHGVFKVKDTTTLQQHLVDGRDMIIIRMPKDFPPFPQKLKFREPQREERICLVTTNFQTKSMSSMVSDTSCTFPSGDGIFWKHWIQTKDGQCGSPLVSTRDGFIVGIHSASNFTNTNNYFTSVPKNFMELLTNQEAQQWVSGWRLNQDSVLWGGHKVFMVKPEEPFQPVKEATQL [A207Q],area with substrate ENLYFQA,0.0985
same,area with substrate ENLYFQC,0.12
same,area with substrate ENLYFQH,0.0769
same,area with substrate ENLYFQI,0.0442
same,area with substrate ENLYFQK,0.0636
same,area with substrate ENLYFQM,0.108
same,area with substrate ENLYFQN,0.0866
same,area with substrate ENLYFQR,0.0514
same,area with substrate ENLYFQS,0.101
same,area with substrate ENLYFQT,0.072
same,area with substrate ENLYFQW,0.0634
MGESLFKGPRDYNPISSSICHLTNESDGHTTSLYGIGFGPFIITNKHLFRRNNGTLVVQSLHGVFKVKDTTTLQQHLVDSRDMIIIRMPKDFPPFPQKLKFREPQREERICLVTTNFQTKSMSSMVSDTSCTFPSGDGIFWKHWIQTKDGQCGSPLVSTRDGFIVGIHSASNFTNTNNYFTSVPKNFMELLTNQEAQQWVSGWRLNADSVLWGGHKVFMVKPEEPFQPVKEATQL [G80S],area with substrate ENLYFQA,0.0715
same,area with substrate ENLYFQC,0.101
same,area with substrate ENLYFQF,0.0516
same,area with substrate ENLYFQI,0.0581
same,area with substrate ENLYFQL,0.0686
same,area with substrate ENLYFQN,0.0604
same,area with substrate ENLYFQR,0.0685
same,area with substrate ENLYFQS,0.0895
same,area with substrate ENLYFQT,0.0664
MGESLFKGPRDYNPISSSICHLTNESDGHTTSLYGIGFGPFIITNKHLFRRNNGTLVVQSLHGVFKVKDTTTLQQHLVDGRDMIIIRMPKDFPPFPQKLKFREPQREERICLVTTNFQTKSMSSMVSDTSCTFPSGDGIFWKHWIQTKDIQCGSPLVSTRDGFIVGIHSASNFTNTNNYFTSVPKNFMELLTNQEAQQWVSGWRLNADSVLWGGHKVFMVKPEEPFQPVKEATQL [G150I],area with substrate ENLYFQA,0.0449
same,area with substrate ENLYFQC,0.0615
same,area with substrate ENLYFQF,0.0441
same,area with substrate ENLYFQH,0.0669
same,area with substrate ENLYFQK,0.056
same,area with substrate ENLYFQL,0.0543
same,area with substrate ENLYFQM,0.0563
same,area with substrate ENLYFQN,0.0577
same,area with substrate ENLYFQQ,0.0571
same,area with substrate ENLYFQR,0.0551
same,area with substrate ENLYFQS,0.0575
same,area with substrate ENLYFQT,0.0479
MGESLFKGPRDYNPISSSICHLTNESDGHTTSLYGIGFGVFIITNKHLFRRNNGTLVVQSLHGVFKVKDTTTLQQHLVDGRDMIIIRMPKDFPPFPQKLKFREPQREERICLVTTNFQTKSMSSMVSDTSCTFPSGDGIFWKHWIQTKDGQCGSPLVSTRDGFIVGIHSASNFTNTNNYFTSVPKNFMELLTNQEAQQWVSGWRLNADSVLWGGHKVFMVKPEEPFQPVKEATQL [P40V],area with substrate ENLYFQA,0.102
same,area with substrate ENLYFQC,0.108
same,area with substrate ENLYFQD,0.0791
same,area with substrate ENLYFQK,0.0598
same,area with substrate ENLYFQL,0.062
same,area with substrate ENLYFQN,0.0879
same,area with substrate ENLYFQQ,0.0646
same,area with substrate ENLYFQS,0.105
same,area with substrate ENLYFQT,0.0648
same,area with substrate ENLYFQV,0.0505
same,area with substrate ENLYFQY,0.0745
MGESLFKGPRDYNPISSSICHLTNESDGHTTSLYGIGFGPFIITNKHLFRRNNGTLVVQSLHGVFKVKDTTTLQQHLVDGRDMIIIRMPKDFPPFPQKLKFREPQREERICLVTTNFQTKSMSSMVSDTSCTFPSGDGIFWKHWIATKDGQCGSPLVSTRDGFIVGIHSASNFTNTNNYFTSVPKNFMELLTNQEAQQWVSGWRLNADSVLWGGHKVFMVKPEEPFQPVKEATQL [Q146A],area with substrate ENLYFQA,0.138
same,area with substrate ENLYFQC,0.12
same,area with substrate ENLYFQF,0.0786
same,area with substrate ENLYFQH,0.109
same,area with substrate ENLYFQI,0.0563
same,area with substrate ENLYFQK,0.0567
same,area with substrate ENLYFQL,0.0545
same,area with substrate ENLYFQM,0.0953
same,area with substrate ENLYFQR,0.048
same,area with substrate ENLYFQS,0.107
same,area with substrate ENLYFQY,0.0638
MGESLFKGPRDYNPISSSICHLTNESDGHTTSLYGIGFGPFIITNKHLFRRNNGTLVVQSLHGVFKVKDTTTLQQHLVDGRAMIIIRMPKDFPPFPQKLKFREPQREERICLVTTNFQTKSMSSMVSDTSCTFPSGDGIFWKHWIQTKDGQCGSPLVSTRDGFIVGIHSASNFTNTNNYFTSVPKNFMELLTNQEAQQWVSGWRLNADSVLWGGHKVFMVKPEEPFQPVKEATQL [D82A],area with substrate ENLYFQA,0.035
same,area with substrate ENLYFQC,0.0576
same,area with substrate ENLYFQL,0.0525
same,area with substrate ENLYFQM,0.067
same,area with substrate ENLYFQR,0.0436
same,area with substrate ENLYFQS,0.0598
same,area with substrate ENLYFQY,0.0487
MGESLFKGPRDYNPISSSICHLTNESDGHTTSLYGIGFGPFIITNKHLFRRNNGTLVVQSLHGVFKVKDTTTLQQHLVDGRDMIIIRMPKDFPPFPQKLKFREPQREERICLVTTNFQTKSMSSMVSDTSCTFPSGDGIFWKHWIQTKDGQCGSPLVSTRDGFIVGIHSASNFTNTNNYFTSVPKNFMELLTNQEAQQWVSGWRLNADSVLWGPHKVFMVKPEEPFQPVKEATQL [G214P],area with substrate ENLYFQA,0.0673
same,area with substrate ENLYFQC,0.0873
same,area with substrate ENLYFQD,0.0438
same,area with substrate ENLYFQG,0.064
same,area with substrate ENLYFQK,0.0565
same,area with substrate ENLYFQM,0.0614
same,area with substrate ENLYFQR,0.0684
same,area with substrate ENLYFQS,0.0681
same,area with substrate ENLYFQV,0.0298
same,area with substrate ENLYFQY,0.0556
MCESLFKGPRDYNPISSSICHLTNESDGHTTSLYGIGFGPFIITNKHLFRRNNGTLVVQSLHGVFKVKDTTTLQQHLVDGRDMIIIRMPKDFPPFPQKLKFREPQREERICLVTTNFQTKSMSSMVSDTSCTFPSGDGIFWKHWIQTKDGQCGSPLVSTRDGFIVGIHSASNFTNTNNYFTSVPKNFMELLTNQEAQQWVSGWRLNADSVLWGGHKVFMVKPEEPFQPVKEATQL [G2C],area with substrate ENLYFQA,0.144
same,area with substrate ENLYFQL,0.0464
same,area with substrate ENLYFQM,0.141
same,area with substrate ENLYFQS,0.124
MLESLFKGPRDYNPISSSICHLTNESDGHTTSLYGIGFGPFIITNKHLFRRNNGTLVVQSLHGVFKVKDTTTLQQHLVDGRDMIIIRMPKDFPPFPQKLKFREPQREERICLVTTNFQTKSMSSMVSDTSCTFPSGDGIFWKHWIQTKDGQCGSPLVSTRDGFIVGIHSASNFTNTNNYFTSVPKNFMELLTNQEAQQWVSGWRLNADSVLWGGHKVFMVKPEEPFQPVKEATQL [G2L],area with substrate ENLYFQA,0.112
same,area with substrate ENLYFQE,0.0281
same,area with substrate ENLYFQH,0.0993
same,area with substrate ENLYFQK,0.0535
same,area with substrate ENLYFQL,0.0588
same,area with substrate ENLYFQM,0.149
same,area with substrate ENLYFQR,0.0576
same,area with substrate ENLYFQS,0.13
same,area with substrate ENLYFQW,0.0678
MGESLFKGPRDYNPISSSICHLTNESDGHTTSLYGIGFGPFIITNKHLFRRNNGTLVVQSLHGVFKVKDTTTLQQHLVDGRDMIIIRMPKDFPPFPQKLKFREPQREERICLVTTNFQTKSMSSMVSDTSCTFPSGDGIFWKHWIQTKDGQCGSPLVSTRDGFIVGIHSASNFTNTNNYFTSVPKNFMELLTNQEAQQWVSGWRLNADSVLWGGHKFFMVKPEEPFQPVKEATQL [V217F],area with substrate ENLYFQA,0.0748
same,area with substrate ENLYFQC,0.0809
same,area with substrate ENLYFQD,0.0819
same,area with substrate ENLYFQF,0.0613
same,area with substrate ENLYFQG,0.0814
same,area with substrate ENLYFQI,0.0618
same,area with substrate ENLYFQK,0.0657
same,area with substrate ENLYFQM,0.031
same,area with substrate ENLYFQR,0.063
same,area with substrate ENLYFQS,0.0883
same,area with substrate ENLYFQT,0.0573
same,area with substrate ENLYFQY,0.0698
MGESLFKGPRDYNPISSSICHLTNESDGHTTSLYGIGFGPFIITNKHLFRRNNGTLVVQSLHGVFKVKDTTTLQQHLVDGRDMIIIRMPKDFPPFPQKLKFREPQREERICLVTTNFQTKSMSSMVSDTSCTFPSGDGIFWKHWIQTKDGQCGSPLVSTRDGFIVGIHSASNFTNTNNYFTSVPKNFMELLTNQEAQQWVSGWRLNADSVLWGGHKVWMVKPEEPFQPVKEATQL [F218W],area with substrate ENLYFQA,0.103
same,area with substrate ENLYFQC,0.119
same,area with substrate ENLYFQD,0.0619
same,area with substrate ENLYFQF,0.066
same,area with substrate ENLYFQG,0.0877
same,area with substrate ENLYFQH,0.0801
same,area with substrate ENLYFQK,0.0602
same,area with substrate ENLYFQN,0.0822
same,area with substrate ENLYFQP,0.0582
same,area with substrate ENLYFQS,0.0932
same,area with substrate ENLYFQT,0.0629
